Results: PubChem BioAssay AID720709 (National Center for Advancing Translational Sciences (NCATS), 2013)
Screen size: about 360,000 compounds; about 520 (0.14%) were called active. The shares of active, inactive and inconclusive entries below differ from those in the screen. Calls follow the shape of the dose curve; as a rule, active = well fitted inhibition curve with a large enough effect; inconclusive = small, poorly fitted or top-dose-only effect; inactive = no such curve, though single readings can be large or run the other way. Potencies of inconclusive entries are doubtful fits and often do not repeat.

What follows are compounds tested against Rap guanine nucleotide exchange factor 3 (Homo sapiens) (UniProt O95398) (assay: qHTS for Antagonist of cAMP-regulated guanine nucleotide exchange factor 3 (EPAC1): primary screen). Conditions: EPAC1 GEF assay, Rap1b-BODIPY-GDP exchange fluorescence; activity change, negative = inhibition: at 115 µM (top of the series).
UniProt O95398, sequence (O95398 whole entry, looked up): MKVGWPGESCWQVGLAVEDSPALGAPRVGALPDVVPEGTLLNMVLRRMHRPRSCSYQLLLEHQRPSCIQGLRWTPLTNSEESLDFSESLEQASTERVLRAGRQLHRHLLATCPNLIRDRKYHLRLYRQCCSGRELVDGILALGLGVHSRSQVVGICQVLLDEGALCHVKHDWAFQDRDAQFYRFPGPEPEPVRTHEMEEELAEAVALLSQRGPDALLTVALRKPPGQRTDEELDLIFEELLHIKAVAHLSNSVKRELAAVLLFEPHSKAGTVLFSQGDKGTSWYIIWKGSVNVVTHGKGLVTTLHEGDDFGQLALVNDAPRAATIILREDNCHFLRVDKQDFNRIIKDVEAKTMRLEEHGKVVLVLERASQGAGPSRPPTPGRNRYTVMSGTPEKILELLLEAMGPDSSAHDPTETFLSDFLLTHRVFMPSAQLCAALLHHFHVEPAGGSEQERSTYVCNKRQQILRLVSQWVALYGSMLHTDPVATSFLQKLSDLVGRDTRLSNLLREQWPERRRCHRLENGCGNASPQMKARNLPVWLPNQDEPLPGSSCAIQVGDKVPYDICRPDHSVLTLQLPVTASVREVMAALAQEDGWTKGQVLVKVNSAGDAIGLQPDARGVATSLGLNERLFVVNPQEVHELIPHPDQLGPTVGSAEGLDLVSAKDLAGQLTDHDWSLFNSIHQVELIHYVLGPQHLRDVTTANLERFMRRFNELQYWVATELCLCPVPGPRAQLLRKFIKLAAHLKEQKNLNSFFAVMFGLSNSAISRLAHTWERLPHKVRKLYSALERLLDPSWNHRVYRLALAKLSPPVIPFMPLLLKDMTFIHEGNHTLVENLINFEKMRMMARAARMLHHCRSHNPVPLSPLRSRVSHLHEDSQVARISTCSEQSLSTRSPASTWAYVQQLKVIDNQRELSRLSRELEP
Also: nearly all actives have a fitted effect of over 50% in size.
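For activity change, negative = inhibition in this document: plate controls were vehicle for no effect and positive control for full effect.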
Potency is read from the fitted curve at half-maximal effect; tags tell the direction and shape of the fitted curve.

Potency, inconclusive:
O=C(Cc1c[nH]c2ccccc12)Nc1ccccc1N1CCOCC1 28.2 µM [inhibitor, full curve]
CCN1CCc2c(sc(NC(=O)Nc3ccc(Cl)c(Cl)c3)c2C(N)=O)C1 100 µM [inhibitor, single point]
O=C(COC(=O)C1CCC(=O)N1)Nc1cccc([N+](=O)[O-])c1 (centres undefined) 25.1 µM [inhibitor, single point]
NS(=O)(=O)c1ccc(N=Nc2c(O)c(C(=O)O)cc3ccccc23)cc1 79.4 µM [inhibitor, partial curve]
CC(=O)c1ccc(OCCCC(=O)N(CCC2=CCCCC2)c2c(N)n(Cc3ccccc3)c(=O)[nH]c2=O)cc1 39.8 µM [inhibitor, single point]
O=C1CN(S(=O)(=O)c2cc(C(=O)O)ccc2Cl)c2ccccc2N1 12.6 µM [inhibitor, full curve, poor fit]
CC(=NNc1ccccc1)C(C)=NNc1ccccc1 89.1 µM [inhibitor, single point]
COc1ccc(-c2cc(C)no2)cc1S(=O)(=O)N(C)c1ccc(C)c(C)c1 79.4 µM [inhibitor, single point]
COc1cc2c3nnc(-c4ccc(F)cc4)c-3cn(Cc3cccc(F)c3)c2cc1OC 100 µM [inhibitor, single point]
O=C(COC(=O)c1cccc2ccccc12)Nc1ncc(C(F)(F)F)cc1Cl 25.1 µM [inhibitor, full curve, poor fit]
O=C(Cc1ccc(Nc2nc3ccc(Br)cc3[nH]2)cc1)NCCc1cccs1 35.5 µM [inhibitor, partial curve]
COCCNC(=O)c1ccccc1NC(=O)Cc1ccccc1 89.1 µM [inhibitor, single point]
Nn1c(Cc2ccccc2F)nnc1SCC(=O)Nc1cccc(S(=O)(=O)NC2=NCCCCC2)c1 56.2 µM [inhibitor, partial curve]
O=C(COC(=O)CSc1ccccc1)NCCNC(=O)COC(=O)CSc1ccccc1 31.6 µM [inhibitor, partial curve]
CN(CC(=O)Nc1ccc(F)c(F)c1F)C(=O)c1ccc2c(c1)NC(=O)CS2 100 µM [inhibitor, partial curve, poor fit]
O=C(CCN1C(=O)/C(=C/c2ccc(Cl)cc2)SC1=S)NCCCn1ccnc1 35.5 µM [inhibitor, partial curve, poor fit]
COc1cc(NC(=O)CSc2nnc3c(C)cc4c(C)ccc(C)c4n23)c(C(=O)O)cc1OC 100 µM [inhibitor, single point]
Cc1ccc(S(=O)(=O)N2[C@@H](c3ccccc3)C(C(=O)O)=CC[C@H]2c2ccc(Cl)cc2)cc1 89.1 µM [inhibitor, single point]
O=C(Nc1ccccc1C(=O)Nc1ccccn1)c1cccc([N+](=O)[O-])c1 100 µM [inhibitor, single point]
COc1c(S(=O)(=O)N2CCN(c3ccc(F)cc3)CC2)ccc(Cl)c1Cl 15.8 µM [inhibitor, full curve, poor fit]
CCCCC(=O)Nc1cccc(NC(=O)c2ccccc2Br)c1 25.1 µM [inhibitor, single point]
Cc1cc(=O)oc2c1c(C)nn2-c1cccc(Cl)c1 44.7 µM [inhibitor, full curve, poor fit]
COc1cccc(NC(=O)C2C(c3ccccc3)C2(Cl)Cl)c1 (centres undefined) 44.7 µM [inhibitor, single point]
CCCC(=O)Nc1c2c(nn1-c1ccccc1)CSC2 7.94 µM [inhibitor, full curve, poor fit]
O=C(c1ccc(Cl)cc1)C1CCCN(Cc2cnn(-c3ccccc3)c2)C1 (centres undefined) 100 µM [inhibitor, single point]
Cc1ccc(-c2cc(C(=O)N3N=C(C(F)F)CC3(O)C(F)F)c3ccccc3n2)cc1C (centres undefined) 39.8 µM [inhibitor, full curve, poor fit]
CC(C)(C)c1ccc(OCCC(=O)Nc2cccc(S(=O)(=O)N3CCOCC3)c2)cc1 8.91 µM [inhibitor, full curve, poor fit]
Cc1sc(NC(=O)c2ccccc2)c(C#N)c1-c1ccccc1 44.7 µM [inhibitor, partial curve]
COc1cc(S(=O)(=O)NC2CCCCC2C)ccc1-n1cnnn1 (centres undefined) 100 µM [inhibitor, partial curve, poor fit]

Activity change, negative = inhibition, inconclusive:
CC(=O)Nc1ncc(N=Nc2cccc(C(F)(F)F)c2)s1 -14.7% [inhibitor]

Activity change, negative = inhibition, inactive:
CC(=O)N1CCN(c2ccc(NC(=O)c3cccc(OCc4ccccc4)c3)cc2)CC1 -7.6%
Cc1ccccc1C(=O)N1CCC1(C)C(=O)NC(C)C (centres undefined) -13.8%
O=C1CCN(Cc2ccc(Cl)cc2Cl)C(=O)N1 -4.9%
O=C(NCCSc1ccccc1)c1ccccc1Cl -7.63%
Cc1ccc(NC(=O)Cn2sc3nc(C)cc(C)c3c2=O)c(Cl)c1 -5.87%
COc1ccc(OC(F)(F)F)cc1CC1(C)C(=O)Nc2ccc(-c3ccsc3)cc21 (centres undefined) -15.6%
CC(=O)C1=CCC(c2ccccc2)N(Cc2ccccc2)C1 (centres undefined) -8.22%
O=C1Nc2ccccc2-n2nnnc2C1N1CCN(C(=O)c2ccco2)CC1 (centres undefined) -2.91%
Cn1nnnc1SCC(=O)N1c2ccccc2Sc2ccccc21 0%
CC[C@@H]1CC=C[C@H]2[C@H]1C(=O)N(Cc1ccccc1)[C@H]2c1ccc(C(F)(F)F)cc1 -21.2%
O=C(CC1Sc2ccccc2NC1=O)NNc1cc(Cl)ccc1Cl (centres undefined) 4.63%
CC(=O)Oc1cccc(Nc2ncnc3ccccc23)c1 -21.1%
COc1cc(S(=O)(=O)Nc2ccccc2C)ccc1Cl 10.3%
O=C(O)c1ccccc1C(=O)OCCCc1ccncc1 3.31%
